The structures appear in SMILES notation. This is one part of the list.

This test concerns S. aureus RN4220. Kind of test: growth inhibition call (relative growth <= 0.2). The conditions noted are these: 50 µM.
On to `O=C1OCCC=C[C@H]2O[C@@]34C=CCN(c5ccc6ccccc6c5)C(=O)[C@H]3N(CCCCCO)C(=O)[C@@H]4[C@@H]12`, for which the growth inhibition call was “inactive”.
Under `COc1ccc(CN(C)C[C@H]2Oc3ccc(NC(=O)Cn4cnnn4)cc3CC(=O)N([C@@H](C)CO)C[C@@H]2C)cc1` stands “inactive”.
The same measure for `COc1ccc(CN(C)C[C@@H]2OCCCC[C@H](C)Oc3ccc(NS(=O)(=O)c4ccccc4)cc3C(=O)N([C@H](C)CO)C[C@@H]2C)cc1`: “inactive”; for `C[C@H](CO)N1C[C@H](C)[C@@H](CN(C)Cc2ccc(Oc3ccccc3)cc2)OCc2ccccc2-c2ccccc2C1=O`: “inactive”; for `COC(=O)[C@@H](N)c1cccc(OC)c1`: “inactive”.
Under `O=S1(=O)CCN(CCc2ccccc2)CC1` stands “inactive”.
`O=C1N[C@@H](CC(=O)N2CCN(CCc3ccncc3)CC2)C(=O)Nc2ccccc21`: the growth inhibition call was “inactive”.
The same measure for `C[C@H](O)C#Cc1ccc2c(c1)O[C@H](CN(C)C(=O)c1ccncc1)[C@H](C)CN([C@@H](C)CO)S2(=O)=O`: “inactive”; for `CCC1OC(=O)C(C)C(OC2CC(C)(OC)C(O)C(C)O2)C(C)C(OC2OC(C)CC(N(C)C)C2O)C(C)(O)CC(C)C2NC(COCCOC)OC(C2C)C1(C)O` (stereo not given): “active”; for `C[C@H]1CN([C@@H](C)CO)C(=O)c2cc(NC(=O)c3ccncc3)ccc2O[C@@H]1CN(C)Cc1ccc(C(=O)O)cc1`: “inactive”.
Under `C[C@@H]1CN([C@@H](C)CO)S(=O)(=O)c2ccc(C#CC3CC3)cc2O[C@H]1CN(C)C(=O)C1CCCCC1` stands “inactive”; under `C[C@H](CO)N1C[C@H](C)[C@@H](CN(C)C(=O)Nc2ccc3c(c2)OCO3)OCCCC[C@H](C)Oc2ccc(NC(=O)Cc3ccccc3)cc2C1=O`, “inactive”.
Take `COc1ccc(NC(=O)Nc2ccc3c(c2)C(=O)N([C@H](C)CO)C[C@H](C)[C@H](CN(C)C(=O)Nc2ccc4c(c2)OCO4)OCCCC[C@@H](C)O3)cc1`: the growth inhibition call is “inactive”.
The same measure for `C[C@@H]1CCCCO[C@H](CN(C)C(=O)Nc2ccc(F)cc2)[C@@H](C)CN([C@H](C)CO)C(=O)c2cc(NC(=O)Nc3ccc4c(c3)OCO4)ccc2O1`: “inactive”; for `COc1ccc(S(=O)(=O)Nc2ccc3c(c2)CC(=O)N([C@@H](C)CO)C[C@H](C)[C@H](CN(C)S(=O)(=O)c2c(C)noc2C)O3)cc1`: “inactive”.
For `NCCCCCCNC(=O)[C@H]1C[C@H]2C(=O)N[C@@H](CCCCN)C(=O)N2[C@H]1c1ccc(O)cc1`, the growth inhibition call was “inactive”.
Under `O=C(C[C@H]1CC[C@H](NC(=O)c2ccc(F)cc2)[C@H](CO)O1)NCc1ccncn1` stands “inactive”.
As to `CO[C@H]1CN(C)C(=O)c2ccc(NS(C)(=O)=O)cc2OC[C@H](C)N(C(=O)C2CCCCC2)C[C@@H]1C`, the growth inhibition call is “inactive”.
Under `Cc1noc(C)c1S(=O)(=O)Nc1ccc2c(c1)C(=O)N([C@@H](C)CO)C[C@H](C)[C@H](CN(C)S(=O)(=O)c1cn(C)cn1)OCCCC[C@H](C)O2` stands “inactive”; under `C=CC[C@@H](CC(=O)N[C@H](CO)Cc1ccccc1)C(=O)NCCOC(=O)[C@@H](CC=C)CC(=O)OC(C)(C)C`, “inactive”.
The same measure for `O=C(CN1CCOCC1)NCC[C@@H]1CC[C@H](NS(=O)(=O)c2ccc(F)cc2)[C@H](CO)O1`: “inactive”.
`CN(C)CC#Cc1ccc([C@@H]2[C@@H](CO)N3C(=O)CN(C(=O)CN(C)C)C[C@H]23)cc1`: the growth inhibition call was “inactive”.
The same measure for `Cn1cnc(CCNC(=O)C[C@H]2CC[C@@H]3[C@H](COC[C@H](O)CN3C(=O)Nc3ccc(C(F)(F)F)cc3)O2)c1`: “active”; for `COc1ccc(NC(=O)Nc2ccc3c(c2)C(=O)N([C@H](C)CO)C[C@H](C)[C@H](CN(C)Cc2ccc4c(c2)OCO4)OCCCC[C@@H](C)O3)cc1`: “inactive”; for `CC(C)N(CCCNC(=O)Nc1ccc(C(C)(C)C)cc1)C[C@H]1O[C@@H](n2cnc3c(N)ncnc32)[C@@H](O)[C@H]1O`: “inactive”.
Under `C=CCNC(=O)[C@H]1[C@@H]2C(=O)O[C@@H](c3ccccc3)[C@@H](c3ccccc3)N2[C@@H](c2ccc(O)cc2)[C@]12C(=O)Nc1ccc(C#Cc3ccc(OC)cc3)cc12` stands “inactive”.
Turning to `O=C1COC2(CCN(C(=O)c3ccno3)CC2)CN1`, the growth inhibition call is “inactive”.
The same measure for `CNC[C@@H]1OCCCC[C@@H](C)Oc2ccc(NC(=O)Nc3cccc4ccccc34)cc2C(=O)N([C@H](C)CO)C[C@@H]1C`: “inactive”; for `Cc1ccc(S(=O)(=O)N(C)C[C@@H]2Oc3ncc(C#CCN(C)C)cc3C(=O)N([C@H](C)CO)C[C@@H]2C)cc1`: “inactive”.
Under `CCCC(NC(C)C(=O)N1C(C(=O)O)CC2CCCCC21)C(=O)O` (stereo not given) stands “inactive”; under `CO[C@@H]1CN(C)C(=O)c2cc(NS(=O)(=O)c3ccccc3)ccc2OC[C@@H](C)N(C(=O)NC(C)C)C[C@H]1C`, “inactive”.
Under `C[C@@H]1CN([C@H](C)CO)C(=O)Cc2cc(NC(=O)CCN3CCOCC3)ccc2O[C@H]1CN(C)Cc1ccc(C(=O)Nc2ccccc2N)cc1` stands “inactive”; under `Cc1noc(C)c1NC(=O)Nc1ccc2c(c1)C(=O)N([C@H](C)CO)C[C@@H](C)[C@@H](CN(C)Cc1ccc(Cl)c(Cl)c1)O2`, “inactive”.
On to `CCS(=O)(=O)Nc1ccc2c(c1)C(=O)N(C)[C@@H]1CC[C@@H](CC(=O)N[C@H]3CCN(Cc4ccccc4)C3)O[C@H]1CO2`, for which the growth inhibition call was “inactive”.
Regarding `CNC(=O)C(=O)Nc1ccc(N2CCCS2(=O)=O)cc1`, the growth inhibition call is “inactive”.
The same measure for `C[C@@H]1CN([C@@H](C)CO)C(=O)c2cccc(NC(=O)Nc3ccc(F)cc3)c2O[C@@H]1CN(C)Cc1ccc(-c2ccccc2)cc1`: “inactive”; for `CN(C)CC(=O)N1[C@@H]2c3ccc(-c4ccccc4)c(=O)n3C[C@H]1[C@H](CO)[C@H]2C(=O)N1CCN(C)CC1`: “inactive”.
The same measure for `C[C@@H]1CN([C@@H](C)CO)C(=O)c2cc(NC(=O)c3ccncc3)ccc2O[C@@H](C)CCCCO[C@H]1CN(C)CC1CCCCC1`: “inactive”; for `C[C@@H]1CN([C@H](C)CO)S(=O)(=O)c2ccc(-c3ccc(C(=O)N(C)C)cc3)cc2O[C@@H]1CN(C)C(=O)Cc1ccccn1`: “inactive”; for `CC(C)NC(=O)Nc1ccc2c(c1)CC(=O)N([C@@H](C)CO)C[C@H](C)[C@H](CN(C)S(=O)(=O)c1cccs1)O2`: “inactive”.
